The campaign covered roughly 310,000 compounds. About 2,200 (0.71%) showed an effect of 50% or more. Effects have a minus sign here. Some of the results follow.
Each molecule was assayed against human ether-à-go-go-related gene (hERG) potassium channel (human, UniProt Q12809) (assay: primary screen, population patch clamp on CHO cells stably expressing hERG).
Chain of human ether-à-go-go-related gene (hERG) potassium channel (Q12809 whole entry, looked up): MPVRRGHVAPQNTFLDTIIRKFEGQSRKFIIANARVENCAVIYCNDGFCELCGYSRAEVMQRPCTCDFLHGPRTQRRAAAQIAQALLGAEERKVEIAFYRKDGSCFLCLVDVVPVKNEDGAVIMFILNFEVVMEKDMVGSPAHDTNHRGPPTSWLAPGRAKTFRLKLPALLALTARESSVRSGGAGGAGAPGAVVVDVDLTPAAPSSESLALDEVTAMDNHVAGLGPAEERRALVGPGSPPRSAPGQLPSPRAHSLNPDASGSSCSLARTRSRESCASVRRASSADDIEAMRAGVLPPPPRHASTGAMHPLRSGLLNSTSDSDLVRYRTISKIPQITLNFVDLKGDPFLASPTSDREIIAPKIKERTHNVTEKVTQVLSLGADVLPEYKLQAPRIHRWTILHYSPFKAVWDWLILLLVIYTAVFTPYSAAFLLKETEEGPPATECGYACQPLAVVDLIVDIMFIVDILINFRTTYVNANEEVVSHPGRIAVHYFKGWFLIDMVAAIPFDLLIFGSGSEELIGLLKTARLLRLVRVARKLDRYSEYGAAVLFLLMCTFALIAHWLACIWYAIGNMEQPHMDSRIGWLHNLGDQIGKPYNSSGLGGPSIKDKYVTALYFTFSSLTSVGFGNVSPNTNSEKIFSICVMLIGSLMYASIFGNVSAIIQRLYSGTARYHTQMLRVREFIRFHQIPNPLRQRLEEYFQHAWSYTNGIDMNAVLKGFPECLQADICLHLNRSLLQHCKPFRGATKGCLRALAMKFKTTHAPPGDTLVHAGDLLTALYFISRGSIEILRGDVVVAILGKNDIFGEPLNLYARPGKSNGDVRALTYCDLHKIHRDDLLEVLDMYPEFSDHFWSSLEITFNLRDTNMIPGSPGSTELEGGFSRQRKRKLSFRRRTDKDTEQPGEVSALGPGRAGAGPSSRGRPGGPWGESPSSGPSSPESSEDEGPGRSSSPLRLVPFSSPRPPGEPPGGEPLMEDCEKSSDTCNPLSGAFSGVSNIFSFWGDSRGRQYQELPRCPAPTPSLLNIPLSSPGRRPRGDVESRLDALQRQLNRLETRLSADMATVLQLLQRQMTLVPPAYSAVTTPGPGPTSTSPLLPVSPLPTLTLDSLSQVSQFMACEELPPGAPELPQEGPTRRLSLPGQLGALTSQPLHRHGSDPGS

Row | Compound | hERG current change (%, negative = inhibition) at 1uM
1 | O=C(CSc1nnc(-c2ccccc2)n1Cc1ccccc1)NNC(=O)c1ccccc1O | 16.4%
2 | C[C@H](NC(=O)c1ccc(Cl)c(S(=O)(=O)N2CCOCC2)c1)c1nc2ccccc2[nH]1 | 6.52%
3 | CC(=O)N1CCC2(CC1)C/C(=N\NC(=S)Nc1ccc(C)cc1)c1cc(O)ccc1O2 | -4.2%
4 | O=C(CN1C(=O)c2ccccc2C1=O)N(CCO)Cc1ccccc1 | 9.13%
5 | O=S(=O)(c1ccc(Cl)s1)N1CCCCC1 | 16.8%
6 | CCC(c1nnnn1CCc1ccccc1)N1CCN(C(=O)c2ccco2)CC1.Cl (centres unmarked) | 0.523%
7 | Cl.NC(c1ccccc1)c1cccnc1 (centres unmarked) | 13.4%
8 | Cc1nnc(SCc2ccccc2)n1CC1CCCO1 (centres unmarked) | 9%
9 | COc1ccccc1NC(=O)N1CCC(NC(=O)C(Cc2ccccc2F)NC(C)=O)CC1 (centres unmarked) | 10.4%
10 | Cn1c(SCC(=O)N2CCCC2)nc2cccnc21 | 14.2%
11 | CN1CCC(CNC(=O)Nc2ccccc2)(c2ccccc2)CC1 | 13.8%
12 | Cc1ccc(-c2sc(-c3ccccc3)nc2CC(=O)Nc2ccccc2F)cc1 | 7.28%
13 | Cc1cc(C)n(Cc2ccc(C(=O)N/N=C/c3ccc(-c4ccc([N+](=O)[O-])cc4)o3)o2)n1 | 6.96%
14 | CC(C)NCC(O)COC1CCC(C(C)(C)C)CC1.Cl (centres unmarked) | 12.7%
15 | O=C(CSc1nc(-c2ccccc2)c(-c2ccccc2)o1)N1CCOCC1 | 1.5%
16 | CCCCOn1c(C)c(C(=O)OCC)c2c3no[n+]([O-])c3ccc21 | 15.8%
17 | COc1cccc2cc(-c3nnc(SCC(=O)NCc4ccccc4)n3C)oc12 | 15.6%
18 | COc1cccc(OCCNc2cc(N3CCOCC3)ccc2[N+](=O)[O-])c1 | 10.5%
19 | CCn1c(N)nc2ccccc21 | 7.84%
20 | NS(=O)(=O)c1ccc(CCNc2cc(=O)n(Cc3ccc(F)cc3)c(=O)[nH]2)cc1 | 3.62%
21 | O=C(COC(=O)c1ccc2c(c1)OCO2)Nc1ccccc1 | 11.6%
22 | N#Cc1ccccc1S(=O)(=O)N1CCN(CC(=O)NCC2(N3CCOCC3)CCCCC2)CC1 | -2.78%

Row | Compound | hERG current change (%, negative = inhibition) at 1uM
23 | CC1CCc2sc(C(=O)Nc3ccc(C(N)=O)cc3)cc2C1 (centres unmarked) | 8.85%
24 | CCN1CCCC1CNC(=O)c1ccc2c(c1)NC(=O)/C(=C\c1ccc(C)cc1)S2 (centres unmarked) | 11.8%
25 | COc1ccccc1CC(=O)NCc1csc(-c2cccs2)n1 | 16.6%
26 | Cc1ncc(CO)c2cc(-c3nnc(Nc4ccc5c(c4)OCO5)s3)c(=O)oc12 | 10.4%
27 | Cc1ncsc1C(=O)N1CCCC(CNS(=O)(=O)c2cccs2)C1 (centres unmarked) | 7.62%
28 | O=C(N/N=C/c1ccccc1O)C(=O)Nc1ccccn1 | 16.8%
29 | Cc1ccc(C(=O)N(CN2CCCC2=O)c2ccc(F)cc2)cc1 | 2.71%
30 | CCc1cc(=O)oc2cc(C)cc(OCC(=O)NCCCN3CCOCC3)c12 | 7.83%
31 | Cc1onc(-c2c(Cl)cccc2Cl)c1C(=O)Nc1ccc(Cl)cn1 | 11.3%
32 | O=[N+]([O-])c1cccc(NC(=S)NCCc2ccccc2)c1 | 11.5%
33 | Cc1ccc2c(n1)CC(C)(C)C/C2=N\O | 5.55%
34 | CCn1cc(S(=O)(=O)Nc2nc3ccc(OC)cc3s2)cn1 | 12.5%
35 | Cc1cccc(/C=N/c2sc3c(c2C(=O)OC(C)(C)C)CCN(C)C3)c1O | -7.84%
36 | C/C=C(/C)C(=O)Nc1cccc(C2=NOC3(C2)C[C@@H](C(N)=O)N(C(=O)[C@H]2CCC(=O)N2)C3)c1 (some centres unmarked) | 6.28%
37 | Cc1cc(NC(=O)CCC(=O)N2CCC3(CC2)OCCO3)no1 | 13.1%
38 | CN1CCN(c2nc3c(c(=O)[nH]c(=O)n3C)n2Cc2ccc([N+](=O)[O-])cc2)CC1 | -15.1%
39 | O=C(CCc1nnc(-c2ccccc2)o1)NC1CCCCC1 | 9.69%
40 | Cc1cccc(NC(=O)C23CCC(C)(C2Br)C3(C)C)c1 (centres unmarked) | 12.2%
41 | COc1cccc(-c2c(NC(=O)c3ccco3)n(-c3ccc(C)cc3)nc(C)c2=O)c1 | -6.94%
42 | c1ccc(OCCn2c(-c3ccco3)nc3ccccc32)cc1 | 4.24%
43 | Cc1cc(C)cc(OCC(O)Cn2nc(C)cc2C)c1 (centres unmarked) | -0.894%
44 | Cc1cc(C)n2nc(C(=O)N3CCN(Cc4ccc5c(c4)OCO5)CC3)nc2n1 | 15.9%

Reference: paper PMC4336329 (PLoS ONE, 2015)
